According to the supplement of paper PMC10126150:
Values marked as one replicate rest on one cluster of the flow cell; about a third of the high ones do not repeat.

These sequences were tested on ATP (assay: switch fluorescence ratio, 500 uM ATP over buffer (Cy3 cluster intensity, sum of 5 cycles each) (fold (ratio)); higher = stronger signal-on switching upon ATP binding; sequences stand for … in TCGTCGGCAGCGTCAGATGTGTATAAGAGACAGTTTTTTTTTTTTTTTTTTTTTTTTT…TC). Conditions: aptamer strand: ATP DNA aptamer (quencher-CACCTGGGGGAGTATTGCGGAGGAAGG + anchor), 100 nM annealed; ATP concentration: 500 uM; one replicate.
Method in brief: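 Exposure to 500 uM ATP lasted 15 min at 22 °C before imaging, and a selection-buffer image was taken beforehand, for Cy3-labelled switching-strand clusters on a modified Illumina MiSeq flow-cell annealed to 100 nM quencher-labelled ATP aptamer. Five buffer/ATP cycles were run with NaOH stripping and re-annealing between them. The fluorescence ratio per cluster is summed target-cycle over summed buffer-cycle Cy3 intensity, averaged per switch-domain sequence. Clusters outside 100-1000 RFU were excluded.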

Row | Sequence | switch fluorescence ratio
1 | AGCGTGGGGA | 0.973
2 | AGCGTTAT | 1.01
3 | AGCTAAAGCT | 1.04
4 | AGCTAACCGC | 1.02
5 | AGCTAACGAG | 1.07
6 | AGCTAAGAGA | 0.965
7 | AGCTAATGTA | 1.01
8 | AGCTACTCTA | 1.25
9 | AGCTAGAGTG | 1.03
10 | AGCTATAAA | 0.982
11 | AGCTATACTA | 2.3
12 | AGCTATCTAT | 0.951
13 | AGCTATGTCA | 1.08
14 | AGCTATTCTC | 1.33
15 | AGCTCAATGG | 1.02
16 | AGCTCACTTA | 1.06
17 | AGCTCATCCC | 1.13
18 | AGCTCCGATG | 1.12
19 | AGCTCCTATG | 1.03
20 | AGCTCGCCCC | 1.13
21 | AGCTCTGTCT | 1.03
22 | AGCTCTTGAC | 1.04
23 | AGCTGACAAC | 1.07
24 | AGCTGACGCC | 1.3
25 | AGCTGCGCGT | 0.998
26 | AGCTGCTATT | 1.03

Row | Sequence | switch fluorescence ratio
27 | AGCTGGTCGG | 1.05
28 | AGCTGTCCCT | 0.977
29 | AGCTTATAGC | 0.969
30 | AGCTTCATTA | 0.993
31 | AGCTTCCGCC | 2.98
32 | AGCTTCGTAG | 1.01
33 | AGCTTGGGAT | 1
34 | AGCTTGTATC | 1
35 | AGCTTTAAAC | 1.03
36 | AGCTTTAAGG | 1.04
37 | AGCTTTGGTG | 1.03
38 | AGCTTTTTTT | 0.964
39 | AGGAAAATA | 1.05
40 | AGGAAATGAA | 1.03
41 | AGGAAATTGC | 0.965
42 | AGGAACGGAG | 1.01
43 | AGGAAGAGTA | 0.985
44 | AGGAAGTCGC | 0.941
45 | AGGAAGTGAT | 0.991
46 | AGGAATTCGC | 0.961
47 | AGGAATTGAC | 0.997
48 | AGGAATTGAG | 1
49 | AGGACGGCCC | 0.968
50 | AGGACTGGAA | 1.04
51 | AGGAGAAAGA | 1.09
52 | AGGAGCACAC | 1.48

Row | Sequence | switch fluorescence ratio
53 | AGGAGGTCGT | 1
54 | AGGATAGAAA | 1.02
55 | AGGATATCGG | 1.03
56 | AGGATATGCG | 0.963
57 | AGGATATTAC | 0.995
58 | AGGATCACGT | 0.959
59 | AGGATGATAG | 1.02
60 | AGGATGCTGA | 0.992
61 | AGGATGTCAA | 0.969
62 | AGGATTATGA | 0.967
63 | AGGCAACTCT | 0.992
64 | AGGCAGCGCG | 1.04
65 | AGGCAGTAAT | 1
66 | AGGCATCCCA | 1.04
67 | AGGCATGCGT | 1.01
68 | AGGCCAAATC | 1
69 | AGGCCACGCT | 1.04
70 | AGGCCCCTGT | 1
71 | AGGCCGAATG | 0.941
72 | AGGCCGGATA | 0.964
73 | AGGCCTAAAA | 1.01
74 | AGGCGGAACA | 0.948
75 | AGGCGGAAG | 1.02
76 | AGGCGGGCAT | 0.961
77 | AGGCGGTGGT | 0.924
78 | AGGCGTTATG | 0.987

Row | Sequence | switch fluorescence ratio
79 | AGGCGTTGCA | 1.01
80 | AGGCTAGAA | 0.985
81 | AGGCTGATTA | 1
82 | AGGCTGCATA | 1.08
83 | AGGCTGGACT | 0.96
84 | AGGCTGGCCC | 1
85 | AGGCTGTATC | 1.06
86 | AGGCTTATT | 0.955
87 | AGGCTTTGGT | 0.979
88 | AGGCTTTTC | 1.02
89 | AGGG | 1.02
90 | AGGGAATTAA | 0.988
91 | AGGGACCCAG | 1.04
92 | AGGGACCTGC | 0.978
93 | AGGGACGATT | 0.981
94 | AGGGACGCCC | 1.61
95 | AGGGAGACAC | 1.06
96 | AGGGAGGACA | 0.993
97 | AGGGAGGGGC | 1.03
98 | AGGGATACAC | 1.1
99 | AGGGATACTA | 1.04
100 | AGGGATGAAG | 1.02
101 | AGGGATGCGA | 1.43
102 | AGGGCAGGGG | 1.04
103 | AGGGCCACT | 1.01
104 | AGGGCCTTTG | 1.04

Row | Sequence | switch fluorescence ratio
105 | AGGGCGCTTC | 1.03
106 | AGGGCGGA | 1.03
107 | AGGGCGGCGT | 1.06
108 | AGGGCTACAC | 0.937
109 | AGGGCTGATC | 1.01
110 | AGGGCTGGAC | 1.01
111 | AGGGCTTTCA | 0.974
112 | AGGGGAAAT | 1.36
113 | AGGGGAACTT | 1.02
114 | AGGGGACACG | 1.05
115 | AGGGGACTCC | 1.02
116 | AGGGGCAGC | 1.06
117 | AGGGGCGTA | 0.967
118 | AGGGGTCCTG | 0.974
119 | AGGGGTTCCT | 1.02
120 | AGGGGTTTCC | 0.981
121 | AGGGTACTCT | 1.03
122 | AGGGTATATG | 0.982
123 | AGGGTATCAC | 1.02
124 | AGGGTCAGAA | 1.03
125 | AGGGTCCGGC | 1.04
126 | AGGGTCCGGT | 0.972
127 | AGGGTCGGGG | 1.06
128 | AGGGTCTAC | 0.975
129 | AGGGTGAGAA | 0.963
130 | AGGGTTATA | 0.997

Row | Sequence | switch fluorescence ratio
131 | AGGGTTCGTA | 0.979
132 | AGGGTTTGTA | 0.93
133 | AGGTAAACA | 0.941
134 | AGGTAAAGCG | 1
135 | AGGTAATGA | 0.992
136 | AGGTAATGTC | 0.928
137 | AGGTAATTGG | 0.985
138 | AGGTAGACGA | 1.02
139 | AGGTAGTGTT | 1.06
140 | AGGTATCCA | 1
141 | AGGTATGCAT | 1.04
142 | AGGTATGGGC | 1.03
143 | AGGTATGTTC | 1.06
144 | AGGTATTCCT | 0.995
145 | AGGTATTCGC | 0.992
146 | AGGTCATGTT | 0.965
147 | AGGTCGAGA | 1.02
148 | AGGTCTCACA | 0.995
149 | AGGTGAGCAC | 0.988
150 | AGGTGATA | 1.03
151 | AGGTGGACT | 1.03
152 | AGGTGGGCCA | 0.971
153 | AGGTTAGCGG | 0.943
154 | AGGTTCCGCC | 1.05
155 | AGGTTCGCCT | 0.976
156 | AGGTTCTACA | 0.991

Row | Sequence | switch fluorescence ratio
157 | AGGTTGAGTC | 0.962
158 | AGGTTGCAAG | 1.02
159 | AGGTTGCAAT | 1.14
160 | AGGTTGTCGC | 1.03
161 | AGGTTTAATG | 0.997
162 | AGTAAAAGTG | 1.1
163 | AGTAAACGAA | 0.975
164 | AGTAACTGA | 1.01
165 | AGTAAGACTA | 1.02
166 | AGTAAGGCCC | 0.995
167 | AGTACACCTG | 1.08
168 | AGTACACGGT | 1
169 | AGTACCAACT | 1.1
170 | AGTACCGGT | 0.98
171 | AGTACCTAAT | 0.994
172 | AGTACTAGTG | 1
173 | AGTACTGTCC | 1.06
174 | AGTAGACATT | 0.992
175 | AGTAGAGTGC | 0.978
176 | AGTAGATATG | 0.943
177 | AGTAGCTCTT | 1.04
178 | AGTAGGACTT | 0.978
179 | AGTAGGAGTT | 0.956
180 | AGTAGGATCC | 1.02
181 | AGTAGGCACC | 1.03
182 | AGTAGGCAGG | 1.04

Row | Sequence | switch fluorescence ratio
183 | AGTAGGCCTC | 0.97
184 | AGTAGGGCTA | 1.02
185 | AGTAGTAGGT | 0.995
186 | AGTAGTGCTA | 0.99
187 | AGTAGTGTCG | 1.04
188 | AGTATAGGAA | 0.982
189 | AGTATAGGTG | 1
190 | AGTATATTG | 1.01
191 | AGTATCACTT | 1
192 | AGTATCATTG | 0.988
193 | AGTATCGGT | 0.954
194 | AGTATGCGTA | 0.999
195 | AGTATGGATA | 0.989
196 | AGTATGGG | 0.98
197 | AGTATTATAC | 1.01
198 | AGTATTGCTT | 0.953
199 | AGTATTGGA | 1.01
200 | AGTCAATT | 1.04
201 | AGTCAGCTAG | 0.99
